{
  "source": "the RNAGym collection of RNA variant scans (doi:10.1073/pnas.2313332121)",
  "parents": {"B1": {"name": "TPR 5TU (parent)", "chain": "GGAUCUUCUCGAUCUAACAAAAAAGACAAAUCUGCCACAAAGCUUGAGAGCAUCUUCGGAUGCAGAGGCGGCAGCCUUCGGUGGCGCGAUAGCGCCAACGUUCUCAACUAUGACACGCAAAACGCGUGCUCCGUUGAAUGGAGUUUAUCAUG"}},
  "note": "Variants at the background level are over-represented here.",
  "data": [
    {"variants_of": "B1", "experiment": "polymerase ribozyme fitness, log enrichment relative to wild type (log ratio); higher = more active; in vitro selection for triplet polymerase activity", "how_it_was_run": "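PCR was used to build mutant libraries for each subunit of a heterodimeric triplet polymerase ribozyme, which were then transcribed. A single in vitro selection round, in triplicate, used a frozen incubation at −7 °C and recovered extended constructs by gel excision, streptavidin beads and RT-PCR. Fitness is the logarithm of genotype enrichment relative to wild-type enrichment, averaged over replicates with inverse-variance weights. The logarithm is base 2, and after Illumina sequencing only genotypes with ≥10 input reads and ≥1 read per output were kept.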", "values": [
      {"variant": "A22U G84U", "polymerase ribozyme fitness (log ratio)": -1.67},
      {"variant": "A22U G86U", "polymerase ribozyme fitness (log ratio)": -1.05},
      {"variant": "A22U G92C C93U A119G", "polymerase ribozyme fitness (log ratio)": -3.96},
      {"variant": "A22U G94A", "polymerase ribozyme fitness (log ratio)": -0.557},
      {"variant": "A22U G143C", "polymerase ribozyme fitness (log ratio)": -1.09},
      {"variant": "A22U U31C U53A G80U G92U A142U", "polymerase ribozyme fitness (log ratio)": "≤ -4.2"},
      {"variant": "A22U U31G C54G C85U U146C", "polymerase ribozyme fitness (log ratio)": -0.611},
      {"variant": "A22U U33A A52G A60G G62A A66G G71U G92C U145C", "polymerase ribozyme fitness (log ratio)": "≤ -4.2"},
      {"variant": "A22U U44G U56C G58C G88U G117C", "polymerase ribozyme fitness (log ratio)": "≤ -4.2"},
      {"variant": "A22U U45G C85G G86C G94C A147C", "polymerase ribozyme fitness (log ratio)": "≤ -4.2"},
      {"variant": "A22U U55A", "polymerase ribozyme fitness (log ratio)": -0.43},
      {"variant": "A22U U55A A66C U77A C87A", "polymerase ribozyme fitness (log ratio)": "≤ -4.2"},
      {"variant": "A22U U55A U134C U135G U146G", "polymerase ribozyme fitness (log ratio)": "≤ -4.2"},
      {"variant": "A22U U56A A106U A107C A142G", "polymerase ribozyme fitness (log ratio)": "≤ -4.2"},
      {"variant": "A22U U56A C93G A98G C108A C114G U151A", "polymerase ribozyme fitness (log ratio)": "≤ -4.2"},
      {"variant": "A22U U56A G84A G136C", "polymerase ribozyme fitness (log ratio)": -3.75},
      {"variant": "A22U U82G C93A G124U C125U", "polymerase ribozyme fitness (log ratio)": -2.61},
      {"variant": "A22U U102G", "polymerase ribozyme fitness (log ratio)": -2.64},
      {"variant": "A22U U127A", "polymerase ribozyme fitness (log ratio)": -3.54},
      {"variant": "A22U U135C", "polymerase ribozyme fitness (log ratio)": -1.64},
      {"variant": "A23C A24G C96G C114U A120U", "polymerase ribozyme fitness (log ratio)": "≤ -4.2"},
      {"variant": "A23C A24U C35U G50A C95U G143A", "polymerase ribozyme fitness (log ratio)": "≤ -4.2"},
      {"variant": "A23C A24U C57U G58A U61A C93G C103U C118U", "polymerase ribozyme fitness (log ratio)": "≤ -4.2"},
      {"variant": "A23C A26G G59C U61A U146A", "polymerase ribozyme fitness (log ratio)": "≤ -4.2"},
      {"variant": "A23C A26U A29G G42C G124U", "polymerase ribozyme fitness (log ratio)": "≤ -4.2"},
      {"variant": "A23C A28C C57U A60C U111C U144G U145G", "polymerase ribozyme fitness (log ratio)": "≤ -4.2"},
      {"variant": "A23C A28U C32U U135C", "polymerase ribozyme fitness (log ratio)": "≤ -4.2"},
      {"variant": "A23C A28U C43U U55A C57U G59A U111A G141C", "polymerase ribozyme fitness (log ratio)": "≤ -4.2"},
      {"variant": "A23C A28U C63U A91U A150G", "polymerase ribozyme fitness (log ratio)": "≤ -4.2"},
      {"variant": "A23C A28U U33G A49G G71U U78A C95A C96A G143C U148G", "polymerase ribozyme fitness (log ratio)": "≤ -4.2"},
      {"variant": "A23C A29C C38U C57G A64C G84U", "polymerase ribozyme fitness (log ratio)": "≤ -4.2"},
      {"variant": "A23C A29C C54A G59C G67U G74A U130C A142C", "polymerase ribozyme fitness (log ratio)": "≤ -4.2"},
      {"variant": "A23C A29C U31G U33C C95U C96U A107U U127C A138C", "polymerase ribozyme fitness (log ratio)": "≤ -4.2"},
      {"variant": "A23C A29G C38G G88U C116U G133C", "polymerase ribozyme fitness (log ratio)": "≤ -4.2"},
      {"variant": "A23C A29G C57U G81C G86A A97C", "polymerase ribozyme fitness (log ratio)": "≤ -4.2"},
      {"variant": "A23C A29U C38U C54A G84A A98U A106G A137U", "polymerase ribozyme fitness (log ratio)": "≤ -4.2"},
      {"variant": "A23C A30C G50A A66G C96A A98U G128C", "polymerase ribozyme fitness (log ratio)": "≤ -4.2"},
      {"variant": "A23C A30G C32A A40G C95G A110U", "polymerase ribozyme fitness (log ratio)": "≤ -4.2"},
      {"variant": "A23C A30U G50A C54A C93G C95U G124A", "polymerase ribozyme fitness (log ratio)": "≤ -4.2"},
      {"variant": "A23C A37C A39C A66U A91C C99U", "polymerase ribozyme fitness (log ratio)": "≤ -4.2"},
      {"variant": "A23C A37U", "polymerase ribozyme fitness (log ratio)": "≤ -4.2"},
      {"variant": "A23C A39C C51U C99A", "polymerase ribozyme fitness (log ratio)": "≤ -4.2"},
      {"variant": "A23C A39C U53C A60G G67A A119C U139C", "polymerase ribozyme fitness (log ratio)": "≤ -4.2"},
      {"variant": "A23C A39G C54U C57U G92A U101C A120U C129G G133U U148C", "polymerase ribozyme fitness (log ratio)": "≤ -4.2"},
      {"variant": "A23C A39G C63U U104C C108G U135C", "polymerase ribozyme fitness (log ratio)": "≤ -4.2"},
      {"variant": "A23C A39G G70A G94A U102G U146G U151G", "polymerase ribozyme fitness (log ratio)": "≤ -4.2"},
      {"variant": "A23C A39U U53A G86U A98G C105A", "polymerase ribozyme fitness (log ratio)": "≤ -4.2"},
      {"variant": "A23C A40C G58U A97G C103G C132G", "polymerase ribozyme fitness (log ratio)": "≤ -4.2"},
      {"variant": "A23C A40C G83U U102A U145A", "polymerase ribozyme fitness (log ratio)": "≤ -4.2"},
      {"variant": "A23C A40G A49G G58C G74A U82G U134A C149A", "polymerase ribozyme fitness (log ratio)": "≤ -4.2"},
      {"variant": "A23C A40U C43U U45A U77G C93A", "polymerase ribozyme fitness (log ratio)": "≤ -4.2"},
      {"variant": "A23C A41C A66G G71A G133A", "polymerase ribozyme fitness (log ratio)": "≤ -4.2"},
      {"variant": "A23C A47G C96A", "polymerase ribozyme fitness (log ratio)": "≤ -4.2"},
      {"variant": "A23C A47G G67A U82A C108A", "polymerase ribozyme fitness (log ratio)": "≤ -4.2"},
      {"variant": "A23C A47U G50A G128A C129U", "polymerase ribozyme fitness (log ratio)": "≤ -4.2"},
      {"variant": "A23C A49C A60G G68U C72U C123G G124A G143C", "polymerase ribozyme fitness (log ratio)": "≤ -4.2"},
      {"variant": "A23C A49G C93U U148C", "polymerase ribozyme fitness (log ratio)": "≤ -4.2"},
      {"variant": "A23C A52C C57U A91G G143U", "polymerase ribozyme fitness (log ratio)": "≤ -4.2"},
      {"variant": "A23C A52G A137C G141C", "polymerase ribozyme fitness (log ratio)": "≤ -4.2"},
      {"variant": "A23C A60G C96A C118U", "polymerase ribozyme fitness (log ratio)": "≤ -4.2"},
      {"variant": "A23C A60U G84U C105A", "polymerase ribozyme fitness (log ratio)": "≤ -4.2"},
      {"variant": "A23C A89G C93G U139A", "polymerase ribozyme fitness (log ratio)": "≤ -4.2"},
      {"variant": "A23C A91U U102G C118U", "polymerase ribozyme fitness (log ratio)": "≤ -4.2"},
      {"variant": "A23C A97G A115C", "polymerase ribozyme fitness (log ratio)": "≤ -4.2"},
      {"variant": "A23C A98U A113U", "polymerase ribozyme fitness (log ratio)": -4.18},
      {"variant": "A23C C27A C36U U44A A91U", "polymerase ribozyme fitness (log ratio)": "≤ -4.2"},
      {"variant": "A23C C27U A29G C87U A110G", "polymerase ribozyme fitness (log ratio)": "≤ -4.2"},
      {"variant": "A23C C27U C43U G80A C93U G133A U148C", "polymerase ribozyme fitness (log ratio)": "≤ -4.2"},
      {"variant": "A23C C32A G48U C75A A91C G92A C95A C99U U130A G133A", "polymerase ribozyme fitness (log ratio)": "≤ -4.2"},
      {"variant": "A23C C32A U56A A60G C103A A110G G112C", "polymerase ribozyme fitness (log ratio)": "≤ -4.2"},
      {"variant": "A23C C32G A91C", "polymerase ribozyme fitness (log ratio)": "≤ -4.2"},
      {"variant": "A23C C35A C36G C54A A137G U148G", "polymerase ribozyme fitness (log ratio)": "≤ -4.2"},
      {"variant": "A23C C35A C57U C87G U146A", "polymerase ribozyme fitness (log ratio)": "≤ -4.2"},
      {"variant": "A23C C36U A60C G86A A121U", "polymerase ribozyme fitness (log ratio)": "≤ -4.2"},
      {"variant": "A23C C36U C57G G58A C85A G136A", "polymerase ribozyme fitness (log ratio)": "≤ -4.2"},
      {"variant": "A23C C38A A40U A66C C93U", "polymerase ribozyme fitness (log ratio)": "≤ -4.2"},
      {"variant": "A23C C51A A113C A115C C116A", "polymerase ribozyme fitness (log ratio)": "≤ -4.2"},
      {"variant": "A23C C51G", "polymerase ribozyme fitness (log ratio)": "≤ -4.2"},
      {"variant": "A23C C51U U53A C99U G140U U144C", "polymerase ribozyme fitness (log ratio)": "≤ -4.2"},
      {"variant": "A23C C54U U55A G71A A122G", "polymerase ribozyme fitness (log ratio)": "≤ -4.2"},
      {"variant": "A23C C57U G74C G92U U102A A115C G143C U151A", "polymerase ribozyme fitness (log ratio)": "≤ -4.2"},
      {"variant": "A23C C69G", "polymerase ribozyme fitness (log ratio)": "≤ -4.2"},
      {"variant": "A23C C75G C103U", "polymerase ribozyme fitness (log ratio)": "≤ -4.2"},
      {"variant": "A23C C76U C87A", "polymerase ribozyme fitness (log ratio)": "≤ -4.2"}
    ]}
  ]
}
